From PubChem BioAssay AID463173 (ICCB-Longwood Screening Facility, Harvard Medical School, 2010)
Hit rate of the full screen: of about 52,000 compounds, about 4,300 (8.3%) were called active. No stated cut-off is given here; in the data, active means survival mostly below about 52% (no sharp cut-off); inactive means mostly above about 56%. This is one part of the list.

System: DeltatarO mutant
Assay: growth inhibition of S. aureus wild type versus tarO mutant, primary screen, teichoic acid synthesis inhibitors, RN4220, OD600 (AID 463173)
Settings: OD600, 18 h, stronger effect = lower value, screened at 18.75 µg/mL (by protocol)

| Structure (SMILES) | survival |
| --- | --- |
| Cc1nc(N2CCOCC2)c2c(C(=O)N(C)c3ccccc3)c(C)oc2n1 | inactive: 64% |
| CCC(Sc1nc2cc(OC)c(OC)cc2c(=O)n1Cc1ccc(OC)cc1)C(=O)NCCOC (stereo not given) | inactive: 92% |
| O=C(CCN1CCCCC1)Nc1ccccc1 | inactive: 97% |
| O=C(Nc1ccccc1)C1CC(=O)N(c2ccccc2)C1 (stereo not given) | inactive: 89% |
| CC(=O)c1ccc(NC(=O)c2cc(S(=O)(=O)N3CCOCC3)ccc2C)cc1 | active: 49% |
| c1ccc2c(NCC3CCCO3)nc(N3CCCCC3)nc2c1 (stereo not given) | inactive: 111% |
| CC(C)(C)c1ccc(C(=O)Nc2ccc(OCc3cc(=O)n4ccsc4n3)cc2)cc1 | inactive: 101% |
| COc1ccc(CCNC(=O)c2ccc(Cn3c(=O)c4ccccc4n(Cc4ccc(F)cc4Cl)c3=O)cc2)cc1OC | inactive: 90% |
| Cc1cc(N2CCN(c3ccccc3)CC2)n2cnnc2n1 | inactive: 93% |
| Cc1c(Cl)cccc1NC(=O)CSc1nc(=O)[nH]c2c1CCCC2 | inactive: 68% |
| COc1ccc(OC)c(NC(=O)Cn2ncc3c2-c2ccccc2OC3)c1 | inactive: 50% |
| O=C(NCCc1ccc(Cl)cc1)C1(c2cccs2)CCOCC1 | inactive: 84% |
| Cc1ccc(-n2c(=O)c3cccnc3n2CC(=O)Nc2ccc(C)cc2Cl)cc1 | inactive: 97% |
| COc1ccc(NC(=O)c2ccccc2C(=O)N2CCCCC2)cc1 | inactive: 68% |
| Cc1ccc(CNC(=O)CN2CCC(n3nnc4cc(C)ccc43)CC2)cc1 | inactive: 94% |
| CC(C)c1ccc2nc(SCC(=O)NC(C)(C)C)c(C#N)cc2c1 | inactive: 90% |
| c1ccc(CN(Cc2cccs2)C(c2cccs2)c2nnnn2C2CCCC2)cc1 (stereo not given) | inactive: 60% |
| CCOC(=O)c1cc(-c2ccccc2)n(CC(=O)NCc2ccc(C)cc2)c1C | active: 37% |
| CCOC(=O)c1c(C)oc2nc(C)nc(NCC3CCN(Cc4ccccc4C)CC3)c12 | inactive: 86% |
| O=C(NCC(c1cccnc1)N1CCOCC1)C(=O)Nc1ccc(Cl)cc1 (stereo not given) | inactive: 87% |
| O=C1CN(C(=O)c2ccc(S(=O)(=O)N3CCCCC3)cc2)C(c2ccc(F)cc2)c2cc(Cl)ccc2N1 (stereo not given) | inactive: 62% |
| Cc1cccc(-c2nc(CS(=O)CC(=O)NCc3ccc(Cl)cc3)c(C)o2)c1 (stereo not given) | inactive: 61% |
| O=C(NCCc1ccccc1)c1ccc(CSc2nc3cccnc3n2Cc2ccccc2F)cc1 | inactive: 91% |

| Structure (SMILES) | survival |
| --- | --- |
| COc1ccc(C2=C(C)C(=O)N(Cc3ccc(C(=O)Nc4ccc(F)cc4C)cc3)S2(=O)=O)cc1 | inactive: 61% |
| CCN(CC)CCn1c(=N)n(CCOc2ccccc2Cl)c2ccccc21 | inactive: 59% |
| Cc1cccc2cc(CN(C(=O)c3ccncc3)C3CCCC3)c3nnnn3c12 | inactive: 90% |
| O=C(CN1C(=O)CC(c2ccco2)Sc2ccccc21)Nc1cccc(C(F)(F)F)c1 (stereo not given) | inactive: 103% |
| CC1CCN(S(=O)(=O)c2cc(C(=O)NCc3ccc(N(C)C)cc3)n(C)c2)CC1 | inactive: 93% |
| O=C(Nc1cccc(C(F)(F)F)c1)c1cccs1 | inactive: 95% |
| CC(C)c1ccc(S(=O)(=O)c2cn(CC(=O)Nc3ccc(F)cc3)c3ccccc3c2=O)cc1 | inactive: 68% |
| O=C(CSc1nc2c(c(=O)[nH]1)CCCC2)Nc1ccccc1C(F)(F)F | inactive: 58% |
| COc1ccc(S(=O)(=O)Nc2cccc(-c3ccc(N4CCCCCC4)nn3)c2)cc1F | inactive: 94% |
| CCc1ccc(CNC(=O)c2cnc(N3CCCCC3)c3ccccc23)cc1 | inactive: 94% |
| COc1ccc(CCNC(=O)C(=O)Nc2ccc(C)c(C)c2)cc1 | inactive: 75% |
| Cc1ccccc1CNC(=O)c1ccc(NC(=O)N2CCCCc3ccccc32)cc1 | inactive: 80% |
| COc1cc(CNCCSc2nnnn2C)ccc1OCc1ccccc1C | inactive: 56% |
| Cc1c(CN(C)C(=O)c2cc(-c3ccccc3)nc3ccc(Br)cc23)cnn1C | active: 30% |
| Cc1oc2ccc(NS(=O)(=O)c3ccc(F)cc3)cc2c1C(=O)O | inactive: 193% |
| Cc1ccc(N2C(=O)SC(N(CC(=O)O)c3ccccc3)C2=O)cc1 (stereo not given) | inactive: 102% |
| Cc1ccc(-c2n[nH]c3c2C(c2ccccc2Cl)N(c2ccc(C(=O)O)cc2)C3=O)cc1 (stereo not given) | inactive: 103% |
| CCCOc1ccc(C2=NC(c3ccncc3)=Nc3ccc(C)cc3N2)cc1 | inactive: 55% |
| Cc1ccc(S(=O)(=O)c2c(Nc3ccc(C)c(C)c3)sc(C(=O)c3ccc4c(c3)OCO4)c2N)cc1 | inactive: 125% |
| CSc1ncc(Cl)c(C(=O)Nc2c(C(=O)Nc3cccc(C)c3)oc3ccccc23)n1 | inactive: 86% |
| CNc1nc(C)c(C(=O)OCC(=O)OC)s1 | inactive: 81% |
| Cc1ccccc1-c1noc(-c2ccc(N3CCC(C)CC3)c([N+](=O)[O-])c2)n1 | inactive: 55% |
| CCc1ccccc1NC(=O)Cn1c(=O)n(Cc2ccccc2)c(=O)c2c(C)c(C(=O)N(C)C)sc21 | inactive: 67% |

| Structure (SMILES) | survival |
| --- | --- |
| Cc1ccccc1CN1c2ccccc2-c2nc(SCC(=O)c3ccc(Cl)cc3)ncc2S1(=O)=O | inactive: 81% |
| Cc1csc2nc(-c3cccc(NS(C)(=O)=O)c3)cn12 | inactive: 88% |
| Cc1ccc(NC(=O)CCN2CC(C)CC(C)C2)cc1 (stereo not given) | inactive: 106% |
| CCOc1ccc(NC(=O)Cn2c(=O)cc(C)c3c(C)nn(C)c32)cc1 | inactive: 76% |
| CCOC(=O)c1c(NC(=S)NC(=O)c2c(I)cnn2C)sc2c1CCC(C)C2 (stereo not given) | inactive: 83% |
| Cc1ccc(-c2nc(C)c(CCNC(=O)C(=O)Nc3cc(C)ccc3C)s2)cc1 | inactive: 90% |
| Cc1csc2nc(-c3ccc(NS(=O)(=O)c4cccc(F)c4)cc3)cn12 | inactive: 88% |
| CC(=O)NC1(NC(C)=O)CC(c2ccccc2)N(C)CC1C (stereo not given) | inactive: 69% |
| NNC(=O)c1nnn(-c2nonc2N)c1CN1CCCC1 | inactive: 96% |
| CC(C)c1nc2ccc(C(=O)NCCCN3CCN(c4ccccc4)CC3)cc2o1 | inactive: 120% |
| O=C(CN1CCN(Cc2ccc(F)cc2Cl)C1=O)NCCc1ccc(Cl)cc1 | inactive: 54% |
| CCOc1ccc(C(=O)Nc2ccc3oc(-c4cccc5ccccc45)nc3c2)cc1 | active: 60% |
| O=C1CN(C(=O)c2ccc(S(=O)(=O)N3CCCC3)cc2)C(c2ccccc2)c2cc(Cl)ccc2N1 (stereo not given) | inactive: 71% |
| O=C1CS/C(=N\N=C/c2ccccc2)N1 | inactive: 98% |
| COc1ccc(OC)c(NC(=O)N2CC(C)Oc3ccc(C)cc32)c1 (stereo not given) | inactive: 55% |
| Cc1ccc(C(=O)c2cn(CC(=O)NCc3ccccc3)c3nc(C)ccc3c2=O)cc1 | inactive: 95% |
| COc1ccc(C(=O)Nc2nc(-c3nnn(-c4ccc(F)cc4F)c3C)ns2)cc1 | inactive: 122% |
| COc1cccc(C(=O)Nc2ccc3nc4n(c(=O)c3c2)CCCCC4)c1 | inactive: 90% |
| Cc1ccc(O)c(Nc2nc3ccccc3c3nncn23)c1 | inactive: 83% |
| Cc1cc(C)n(CC(=O)Nc2cc(F)ccc2F)c(=O)c1C#N | inactive: 81% |
| O=C1c2ccccc2C(=O)N1CCN1C(=O)c2ccccc2C1=O | inactive: 78% |
| O=C(Nc1c(C(=O)c2ccccc2)oc2ccccc12)c1ccc(F)cc1 | inactive: 62% |
| CC1=C(C(N)=O)C(c2ccccc2F)n2nc(-c3ccc(Cl)cc3)nc2N1 (stereo not given) | inactive: 80% |

| Structure (SMILES) | survival |
| --- | --- |
| COC(=O)c1cc(S(=O)(=O)N2CCN(c3cc(Cl)ccc3C)CC2)c[nH]1 | active: 12% |
| O=S(=O)(NCC(c1ccco1)N1CCOCC1)c1ccc(F)cc1 (stereo not given) | inactive: 75% |
| Cc1cc(C)c2oc(C(=O)Nc3c(C(=O)c4ccccc4)oc4ccccc34)cc(=O)c2c1 | inactive: 55% |
| Cc1ccc(CNC(=O)Cn2cc3c(n2)-c2c(oc(C(=O)N4CCOCC4)c2C)CC3)cc1 | inactive: 80% |
| COc1ccccc1CNc1ncnc2c1c(-c1ccccc1)cn2-c1ccc(Br)cc1 | inactive: 80% |
| Cc1ccc(C(=O)NCCC(C)C)cc1NC(=O)c1nsc2ccccc12 | inactive: 73% |
| COc1cc2c(=O)c(C(=O)c3ccc(F)cc3)cn(Cc3cccc(F)c3)c2cc1OC | inactive: 85% |
| CCN(CC)c1ccc(NC(=O)Cn2c3ncccc3c(=O)n2-c2ccccc2)c(C)c1 | inactive: 98% |
| COc1ccc(Cl)cc1NC(=O)CSc1nnc2[nH]c(=O)cc(C)n12 | inactive: 90% |
| CCOc1ccc(-c2nc(C(N)=O)c3c(n2)n(-c2ccc4c(c2)OCO4)c(=O)n3CC)cc1 | inactive: 80% |
| COc1ccc(C2C=C(c3ccccc3)Nc3nc(NS(=O)(=O)c4ccc(C)cc4)nn32)cc1 (stereo not given) | inactive: 55% |
| CNC(=S)N1CCN(c2cccc(C)c2C)CC1 | inactive: 69% |
| Cc1c(C(=O)OC2CCCCC2)[nH]c2c1C(=O)CC(c1ccccc1)C2 (stereo not given) | inactive: 93% |
| Cc1ccc(OCC(=O)N(Cc2ccc(Cl)cc2)CC2CCCO2)cc1C (stereo not given) | inactive: 73% |
| O=C(Nc1ccccc1C(F)(F)F)Nc1c[nH]c(=O)[nH]c1=O | inactive: 83% |
| COc1ccc(Nc2c(-c3ccco3)nc3cccc(C)n23)cc1 | inactive: 91% |
| Cc1ccc2c(C)c(C(=O)N3CCC(c4nc5ccccc5s4)CC3)oc2c1C | inactive: 80% |
| Cc1cc(C)c2oc(-c3cc(NC(=O)Cc4ccccc4)ccc3Cl)nc2c1 | active: 31% |
| COc1ccc(NC(=O)C2=C(C)Nc3c(C(=O)Nc4ccc(C)cc4)cnn3C2c2cc(OC)ccc2OC)cc1 (stereo not given) | inactive: 87% |
| COc1cccc(NC(=O)Cn2c(=O)n(Cc3ccccc3)c(=O)c3c2c2cc(C)ccc2n3C)c1 | inactive: 89% |
| CN(C)c1ccc(C2CC(c3c(O)n(C4CCCCC4)c(=O)[nH]c3=O)=Nc3ccccc3S2)cc1 (stereo not given) | inactive: 52% |
